Measurements from PubChem BioAssay AID624417 (National Center for Advancing Translational Sciences (NCATS), 2012).
Several values for one entry are separate records, joined by “and”; a condition that tells them apart may be missing. Identical values can stand only once. In all, about 410,000 compounds went through this assay and about 6,400 (1.6%) were called active. Inconclusive results, whose numbers are uncertain, are shown with a selection of clear calls. The call rests on the fitted dose curve; in most records, active means well fitted inhibition curve with a large enough effect; inconclusive means small, poorly fitted or top-dose-only effect; inactive means no such curve, though single readings can be large or run the other way. Where the call is inconclusive, the potency comes from a doubtful curve fit.
Further: nearly all actives have a fitted effect of over 55% in size.
On the % scale 0 is the no-effect control and ±100 the full control effect; potency means the concentration at half of the fitted maximal effect; tags describe the fitted curve by direction and shape.

These molecules were tested against Glucagon-like peptide 1 receptor (Homo sapiens) (UniProt P43220) (assay: qHTS of GLP-1 Receptor Inverse Agonists (Inhibition Mode)). Details: HEK293 GLP-1R CRE-luciferase, luminescence, 24 h, GLP-1R form is constitutively active; activity change, negative = inhibition: at 38.3 µM (top of the series) unless noted.
Sequence of UniProt P43220 (P43220 whole entry, looked up): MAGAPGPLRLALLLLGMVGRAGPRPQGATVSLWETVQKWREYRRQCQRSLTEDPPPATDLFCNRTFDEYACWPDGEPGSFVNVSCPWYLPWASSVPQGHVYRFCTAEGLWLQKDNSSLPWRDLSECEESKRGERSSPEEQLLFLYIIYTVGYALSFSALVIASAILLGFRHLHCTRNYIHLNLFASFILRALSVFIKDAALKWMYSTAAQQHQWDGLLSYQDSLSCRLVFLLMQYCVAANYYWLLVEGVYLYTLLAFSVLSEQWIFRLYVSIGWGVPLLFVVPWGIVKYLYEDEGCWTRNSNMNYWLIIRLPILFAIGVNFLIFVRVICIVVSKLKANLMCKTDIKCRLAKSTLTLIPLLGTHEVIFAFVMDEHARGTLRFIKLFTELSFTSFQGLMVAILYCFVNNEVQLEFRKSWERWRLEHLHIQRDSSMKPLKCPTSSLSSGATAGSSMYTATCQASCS
Outline: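 HEK293 cells stably co-expressing constitutively active GLP-1R and a cAMP-responsive luciferase reporter were seeded in DMEM with 10% Nu serum, given compounds after 12 h, and incubated 24 h at 37 deg C. Luminescence was then read.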
For `CC(C)c1csc(CN2CCN(Cc3ccc(F)cc3)C(CCO)C2)n1` (configuration not stated), the Potency was inconclusive: 3.98 µM [inhibitor, partial curve, poor fit].
`OCCCn1c(C2CCCN2c2nc(-c3ccc(F)cc3)cs2)nc2cc(C(F)(F)F)ccc21` (configuration not stated) was tested, and the Potency was inconclusive: 28.2 µM [inhibitor, single point].
For `COc1cccc(-c2cc(CC3(O)CCN(CCCc4ccccc4)CC3)on2)c1`, the Potency was inconclusive: 28.2 µM [inhibitor, single point].
With `Cc1cc(C)c(C)c(N=Nc2nc3ccccc3n2C)c1C` the Potency was active: 7.94 µM.
With `Cc1ccc(/C=N/Nc2ccc3ccccc3n2)o1` the Potency was inconclusive: 12.6 µM [inhibitor, partial curve, poor fit].
For `Cc1ccc(C(=O)NCCSC(C)(C)C)cc1`, the Potency was inconclusive: 20 µM [inhibitor, single point].
`O=C(Nc1cccc(C(F)(F)F)c1)C1CCN(S(=O)(=O)c2cccnc2)CC1` was tested, and the Potency was inconclusive: 28.2 µM [inhibitor, single point].
With `S=C(Nc1nc2c(s1)CCCC2)NC1CC1` the Potency was inconclusive: 3.55 µM [inhibitor, full curve, poor fit].
In the case of `COc1ccc(Oc2cc(C)c3ccccc3n2)cc1`, the Potency was inconclusive: 28.2 µM [inhibitor, single point].
For `O=C(Nc1c(C(=O)Nc2cccc3ccccc23)cnn1-c1ccccc1)c1ccco1`, the Potency was inconclusive: 14.1 µM [inhibitor, single point].
In the case of `O=C(c1cccc(Cl)c1)N1CCN(S(=O)(=O)c2ccc(Cl)s2)CC1`, the Potency was inconclusive: 28.2 µM [inhibitor, single point].
With `Cc1cc(Cl)ccc1-n1c(CCC(=O)O)ccc1-c1cccs1` the Potency was inconclusive: 28.2 µM [inhibitor, single point].
For `CC(C)CN(CC(C)C)C(=O)c1cccc(S(=O)(=O)N2CCc3ccccc32)c1`, the Potency was inconclusive: 22.4 µM [inhibitor, partial curve, poor fit].
In the case of `CC(=O)Oc1ccc2c(C)c(CC(=O)N3CCN(C(=O)C4COc5ccccc5O4)CC3)c(=O)oc2c1C` (configuration not stated), the “activity change, negative = inhibition” value was inactive: -14.4%.
With `COC(=O)COc1ccc(-c2nnc(Nc3ccc(O)cc3)c3ccccc23)cc1` the Potency was inconclusive: 12.6 µM [inhibitor, single point].
With `Cc1noc(C)c1S(=O)(=O)N1CCCC(C(=O)NCCc2ccc(Cl)cc2)C1` (configuration not stated) the “activity change, negative = inhibition” value was inactive: -29%.
With `Cc1ccnc(NC(=O)Nc2ccc3c(c2)N(C)C(=O)CS3)c1` the Potency was inconclusive: 7.94 µM [inhibitor, partial curve, poor fit].
With `CCCCC1CCC(C(=O)N2CC(=O)Nc3ccc(Br)cc3C2c2ccc(F)cc2)CC1` (configuration not stated) the Potency was inconclusive: 20 µM [inhibitor, single point].
With `OC(CNC1CCCCCC1)COc1cccc2ccccc12` (configuration not stated) the Potency was active: 11.2 µM.
With `CCc1cccc(CC)c1NC(=O)CCCSc1nc2ccccc2s1` the Potency was inconclusive: 14.1 µM [inhibitor, single point].
In the case of `CCOC(=O)c1noc2nc(C)n(CC(=O)Nc3cccc(OC)c3)c(=O)c12`, the “activity change, negative = inhibition” value was inactive: 2.67%.
In the case of `CN(C)CC(CCC(CN(C)C)C(=O)c1ccccc1)C(=O)c1ccccc1` (configuration not stated), the Potency was inconclusive: 5.01 µM [inhibitor, full curve, poor fit].
With `Cc1cccc(CSc2nnc(CCNC(=O)OC(C)(C)C)o2)c1` the Potency was inconclusive: 7.94 µM [inhibitor, single point].
With `O=c1cc(CSc2nnc(-c3cccs3)n2Cc2ccccc2)nc2sc3ccccc3n12` the Potency was inconclusive: 10 µM [inhibitor, partial curve, poor fit].
For `Cc1ccc(CN(C(=O)c2ccc(OCC(C)C)cc2)c2ccccn2)o1`, the Potency was inconclusive: 12.6 µM [inhibitor, partial curve, poor fit].
For `CN(C)C(=O)c1ccc(NC(=O)c2cccc(S(=O)(=O)N3CCCc4ccccc43)c2)cc1`, the Potency was inconclusive: 20 µM [inhibitor, single point].
`CCCCc1n[nH]c(=S)n1Cc1ccc(C)cc1` was tested, and the Potency was inconclusive: 11.2 µM [inhibitor, partial curve, poor fit].
In the case of `CCOc1ccc(NS(=O)(=O)c2ccc(NC(=O)c3ccccn3)cc2)cc1`, the Potency was inconclusive: 31.6 µM [inhibitor, single point].
In the case of `Cc1nn(-c2ccccc2)c2[nH]c(=O)cc(C(F)(F)F)c12`, the Potency was inconclusive: 28.2 µM [inhibitor, single point].
For `COc1ccc(-c2cc(C)no2)cc1S(=O)(=O)NCCCN1CCN(c2ccccc2)CC1`, the Potency was inconclusive: 12.6 µM [inhibitor, partial curve, poor fit].
`CC(=O)c1cccc(NC(=O)CCCSc2ccccc2)c1` was tested, and the Potency was inconclusive: 12.6 µM [inhibitor, partial curve, poor fit].
In the case of `Cc1n[nH]c(C)c1CCC(=O)N/N=C/c1c[nH]c2ccccc12`, the Potency was inconclusive: 10 µM [inhibitor, partial curve].
`CC(C)[C@H](NC(=O)OC(C)(C)C)c1nnc(SCc2cccc(F)c2)o1` was tested, and the Potency was inconclusive: 28.2 µM [inhibitor, single point].
`Cc1cc(C)c2nc(SCC(=O)N3CC(=O)Nc4ccccc43)c(C#N)cc2c1` was tested, and the Potency was inconclusive: 1 µM [inhibitor, full curve].
In the case of `Cc1ccccc1N(C(=O)c1snc(C(N)=O)c1N)C(C(=O)NC1CCCC1)c1ccco1` (configuration not stated), the Potency was inconclusive: 28.2 µM [inhibitor, single point].
`Cc1ccc(N(CC(=O)N2CCN(c3cc(C)ccc3C)CC2)S(=O)(=O)c2c(C)nn(C)c2C)cc1` was tested, and the Potency was inconclusive: 15.8 µM [inhibitor, partial curve, poor fit].
With `CC(=O)C1=C(C)Nc2ncnn2C1c1cccc(OCc2ccccc2)c1` (configuration not stated) the Potency was inconclusive: 28.2 µM [inhibitor, single point].
In the case of `CC1CCC(NC(=O)C2CCC(CNS(=O)(=O)c3cccc4cccnc34)CC2)CC1` (configuration not stated), the Potency was inconclusive: 8.91 µM [inhibitor, partial curve, poor fit].
`CSC(=S)NCc1cccnc1` was tested, and the Potency was inconclusive: 8.91 µM [inhibitor, partial curve, poor fit].
With `Cc1ccc2c(CN3CCC(C)CC3)cc(=O)oc2c1C` the Potency was inconclusive: 14.1 µM [inhibitor, single point].
In the case of `Cc1c(C(=O)Nc2ccccc2)sc2nc(-c3ccccc3)cn12`, the Potency was inconclusive: 8.91 µM [inhibitor, partial curve, poor fit].
`CC(=O)C1=C(O)C(=O)N(c2ccc(Br)cc2)C1c1ccc([N+](=O)[O-])cc1` (configuration not stated) was tested, and the Potency was inconclusive: 12.6 µM [inhibitor, partial curve, poor fit].
`C=CCc1c(C)[nH]c(=S)c(C#N)c1C` was tested, and the “activity change, negative = inhibition” value was inactive: 6.38%.
With `CCOc1ccc(NC(=O)CC2C(=O)N(CC)C(=S)N2CCNC(C)=O)cc1` (configuration not stated) the “activity change, negative = inhibition” value was inactive: -11.2%.
For `Clc1cc(Cl)c2nc(N3CCCCC3)sc2c1`, the Potency was inconclusive: 28.2 µM [inhibitor, single point].
With `Cc1ccc(S(=O)(=O)N2CCOCC2)cc1NC(=O)CSc1ncccn1` the “activity change, negative = inhibition” value was inactive: 10.7%.
For `Cc1cc(C)cc(NC(=O)CSc2nnc(-c3ccccc3C)o2)c1`, the “activity change, negative = inhibition” value was inactive: 0%.
In the case of `CCc1ccc(-c2nc(CS(=O)CC(=O)NCCc3ccc(C)cc3)c(C)o2)cc1` (configuration not stated), the “activity change, negative = inhibition” value was inactive: -0.469%.
For `COCc1cc(=O)n2[nH]c(-c3ccccc3)cc2n1`, the “activity change, negative = inhibition” value was inactive: 21.1%.
In the case of `CCOc1ccc(N(C)C(=O)c2oc(=O)c3ccccc3c2-c2ccccc2)cc1`, the Potency was inconclusive: 28.2 µM [inhibitor, single point].
In the case of `Cc1cccc(N(CC(=O)NC2CC3CCC2C3)S(=O)(=O)c2ccccc2)c1` (configuration not stated), the Potency was inconclusive: 10 µM [inhibitor, partial curve, poor fit].
In the case of `COc1ccc(NC(=O)c2ccc(NC(=O)CN3CCN(c4ccccc4OC)CC3)cc2)cc1`, the Potency was inconclusive: 8.91 µM [inhibitor, partial curve, poor fit].
`N#Cc1ccc(CN(Nc2ccccc2)c2ccccc2)cc1` was tested, and the Potency was inconclusive: 7.94 µM [inhibitor, partial curve, poor fit].
In the case of `FC(F)(F)c1cccc(N2CCN(c3ncnc4c3nc3n4CCCC3)CC2)c1`, the “activity change, negative = inhibition” value was inactive: -31.9%.
For `CN1CCN(c2ccc(NC(=O)c3ccc(C(F)(F)F)cc3)cn2)CC1`, the Potency was inconclusive: 11.2 µM [inhibitor, partial curve].
In the case of `CCCn1c2ccccc2c2cnn(CC(=O)NCCCN3CCCCC3CC)c(=O)c21` (configuration not stated), the Potency was inconclusive: 10 µM [inhibitor, partial curve, poor fit] and inconclusive: 12.6 µM [inhibitor, partial curve, poor fit].
With `O=C(C(=O)N1CCC(Cc2ccccc2)CC1)c1cccs1` the Potency was inconclusive: 11.2 µM [inhibitor, single point].
`CCc1cccc(NS(=O)(=O)c2ccc3c(c2)NC(=O)CO3)c1` was tested, and the Potency was inconclusive: 14.1 µM [inhibitor, single point].
For `O=C(Cn1nc(C(F)(F)F)c2c1CCCC2)Nc1cccc(Cl)c1`, the Potency was inconclusive: 12.6 µM [inhibitor, single point].
`O=C(Nc1ccccc1)c1cccc(S(=O)(=O)NC2CCCC2)c1` was tested, and the Potency was inconclusive: 7.08 µM [inhibitor, partial curve].
In the case of `Cc1nn(-c2ccc(F)cc2)c2nc(N)c(C#N)c(-c3cccs3)c12`, the Potency was inconclusive: 1.78 µM [inhibitor, full curve, poor fit].
With `Cc1ccc(S(=O)(=O)N2CCOC23CCN(C(=O)c2cc(Cl)ccc2Cl)CC3)cc1` the Potency was inconclusive: 28.2 µM [inhibitor, single point].
